According to the supplement of paper PMC12217912:
The list shows a part of the results. The full chains were built here from the parent and the listed change. Values near 0.05 are background.

B1: TEV protease; numbered along this chain (parent)
chain: MGESLFKGPRDYNPISSSICHLTNESDGHTTSLYGIGFGPFIITNKHLFRRNNGTLVVQSLHGVFKVKDTTTLQQHLVDGRDMIIIRMPKDFPPFPQKLKFREPQREERICLVTTNFQTKSMSSMVSDTSCTFPSGDGIFWKHWIQTKDGQCGSPLVSTRDGFIVGIHSASNFTNTNNYFTSVPKNFMELLTNQEAQQWVSGWRLNADSVLWGGHKVFMVKPEEPFQPVKEATQL

Variants of: B1
Assay: raw area under fraction-flipped curve 0-4 h after induction (AUC4h, not background-subtracted), DNA-recorder readout of cleavage of the substrate (dimensionless); higher = more cleavage of the substrate by the protease variant
Settings: temperature: 34 °C; time window: 0-4 h after rhamnose induction
Description: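 In vivo DNA recorder in E. coli TOP10(DE3) ΔrhaA at 34 °C. Each TEVp single-site mutant (parent TEVp 0) is paired with a single-site variant of the 7-mer TEVs (canonical ENLYFQ|S). The substrate sits between flexible linkers in a Bxb1-sfGFP-TEVs-SsrA fusion, so cleavage stabilises Bxb1 and speeds flipping of a recombination array, read by NGS. The value is the raw area under the fraction-flipped curve over 0-4 h after rhamnose induction (AUC4h), with ≥20 reads per time point. It is not background-subtracted; inactive controls average about 0.047.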
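Further: Bxb1 expression induced with 0.2% (w/v) L-rhamnose at OD600 near 0.5, cultures sampled hourly, flipped fraction per protease–substrate barcode pair counted by paired-end Illumina sequencing.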

Variant | area with substrate ENLYCQS | area with substrate ENLYDQS | area with substrate ENLYEQS | area with substrate ENLYHQS | area with substrate ENLYIQS | area with substrate ENLYKQS | area with substrate ENLYLQS | area with substrate ENLYMQS | area with substrate ENLYNQS | area with substrate ENLYPQS | area with substrate ENLYRQS | area with substrate ENLYSQS | area with substrate ENLYVQS | area with substrate ENLYWQS | area with substrate ENLYGQS | area with substrate ENLYQQS | area with substrate ENLYTQS | area with substrate ENLYYQS
I139D | 0.0853 | 0.0624 | 0.068 | 0.0732 | 0.0752 | 0.0559 | 0.0667 | 0.0674 | 0.0612 | 0.0584 | 0.0527 | 0.0464 | 0.103 | 0.0639 | – | – | – | –
T31L | 0.114 | 0.0428 | 0.0549 | 0.0748 | – | 0.0568 | – | – | 0.0788 | 0.0906 | – | – | 0.13 | – | 0.0612 | 0.0596 | – | –
F173W | 0.0794 | 0.066 | 0.0756 | 0.0711 | – | – | 0.0675 | 0.0652 | 0.059 | 0.0717 | 0.0695 | 0.079 | 0.0779 | 0.0732 | 0.0594 | 0.0601 | 0.0691 | 0.0613
L5Y | 0.111 | 0.0383 | 0.0513 | – | – | 0.0618 | 0.0928 | – | 0.0688 | 0.0802 | 0.0666 | 0.0765 | 0.144 | – | – | – | 0.0785 | –
N193E | 0.0862 | 0.0592 | 0.0698 | 0.0645 | 0.0842 | – | – | – | 0.0631 | 0.0632 | – | – | 0.106 | – | 0.0694 | 0.0634 | – | –
I84P | 0.0379 | 0.0505 | – | – | – | – | – | 0.0361 | 0.0369 | – | – | – | – | – | – | 0.0294 | – | –
A196Y | 0.115 | 0.0722 | 0.0599 | 0.0736 | 0.105 | 0.058 | 0.0896 | – | 0.0687 | 0.0722 | 0.0691 | 0.079 | – | 0.0928 | 0.0672 | – | – | 0.0751
F41C | 0.0771 | 0.0621 | 0.0685 | 0.0637 | 0.119 | 0.0587 | – | 0.0493 | 0.0636 | 0.0724 | 0.0697 | 0.064 | – | 0.0945 | 0.0676 | 0.061 | 0.0785 | 0.0688
F41S | 0.0773 | 0.0593 | 0.054 | 0.0663 | 0.112 | 0.0517 | – | 0.0619 | 0.0591 | 0.0463 | 0.0616 | 0.0615 | 0.0841 | 0.0701 | 0.0373 | 0.0634 | 0.0573 | –
S60A | 0.0623 | 0.0635 | 0.0591 | 0.0558 | 0.137 | 0.0738 | – | 0.0809 | 0.0791 | 0.0808 | 0.0423 | 0.129 | – | 0.0715 | 0.0614 | – | – | 0.057
Q227N | 0.132 | 0.0738 | 0.0685 | 0.0636 | 0.101 | 0.0637 | – | 0.101 | 0.0851 | 0.0717 | 0.05 | – | 0.141 | – | 0.0675 | – | 0.0775 | –
T70M | 0.0702 | 0.0708 | 0.0586 | 0.0619 | 0.127 | – | – | – | 0.0689 | – | 0.0615 | – | 0.103 | 0.0927 | – | 0.0658 | – | –
L22F | 0.0536 | 0.0613 | 0.058 | 0.0558 | 0.0702 | 0.0415 | 0.0681 | 0.0614 | 0.0031 | 0.0599 | 0.0347 | – | 0.0928 | 0.0554 | – | 0.0491 | 0.0607 | 0.0672
I110C | 0.0842 | 0.0639 | 0.0665 | 0.0646 | 0.138 | 0.0589 | – | 0.085 | 0.07 | 0.074 | 0.065 | 0.0618 | 0.0962 | 0.0666 | 0.056 | 0.0661 | 0.0995 | 0.0655
G28V | 0.0565 | 0.044 | 0.0692 | 0.061 | 0.087 | 0.0235 | – | 0.0714 | 0.0742 | 0.0623 | 0.0562 | 0.0604 | – | 0.062 | 0.0638 | 0.0619 | 0.0735 | 0.0664
T55K | 0.0782 | 0.0608 | 0.0599 | 0.0658 | – | 0.0749 | – | 0.0772 | 0.0833 | 0.0757 | 0.0612 | 0.069 | 0.14 | 0.0504 | 0.0643 | 0.054 | 0.0646 | –
W141Y | 0.0797 | 0.0541 | – | 0.0617 | – | 0.059 | – | – | 0.0634 | 0.0575 | – | 0.0713 | 0.122 | 0.078 | 0.0585 | – | – | –
Y179V | 0.0558 | 0.105 | 0.0599 | 0.0627 | – | 0.0532 | 0.0586 | – | 0.0561 | – | – | – | 0.0683 | – | 0.0642 | 0.0629 | – | 0.0409
L205R | 0.0811 | 0.0491 | 0.0614 | 0.0722 | – | – | – | 0.0455 | 0.0791 | 0.0547 | 0.0437 | 0.0626 | – | – | 0.0605 | 0.0641 | – | 0.0517
A170M | 0.0817 | 0.0677 | 0.051 | 0.0533 | – | 0.0056 | – | 0.0519 | – | – | – | 0.0729 | – | 0.0558 | 0.0618 | – | – | 0.0426
Q151F | 0.0757 | 0.0511 | 0.0647 | 0.0475 | – | – | – | – | 0.0668 | 0.0528 | – | – | – | 0.0563 | – | 0.0604 | 0.0672 | –
K216W | 0.0759 | – | 0.0344 | 0.0781 | – | 0.0659 | 0.0658 | 0.0747 | 0.0728 | 0.0711 | 0.071 | 0.0554 | 0.0916 | 0.0848 | 0.0665 | 0.0535 | 0.0356 | 0.049
N206E | 0.0959 | 0.0653 | 0.0642 | 0.0706 | – | 0.0621 | – | 0.0958 | 0.0751 | 0.0852 | 0.0605 | 0.0778 | 0.134 | 0.0819 | 0.0754 | – | – | 0.0576
S201V | 0.085 | 0.0495 | – | 0.0735 | – | 0.0498 | 0.0743 | – | – | 0.0358 | 0.0586 | 0.0779 | – | 0.0756 | 0.0651 | 0.0545 | – | 0.0291
Y12F | 0.0837 | 0.0737 | 0.0672 | 0.0738 | 0.112 | – | – | – | 0.0623 | – | 0.0614 | 0.0767 | 0.12 | 0.0756 | 0.0489 | 0.0598 | – | 0.0547
Q146L | 0.116 | 0.0554 | 0.123 | 0.0716 | – | – | – | – | 0.0945 | 0.0656 | – | 0.0982 | – | 0.0912 | 0.088 | – | – | 0.0611
E189W | 0.0704 | 0.0539 | 0.0858 | 0.0716 | 0.101 | – | 0.0748 | 0.096 | – | 0.0638 | 0.0636 | 0.0717 | 0.128 | 0.0752 | – | 0.0758 | – | –
